# The other results are listed elsewhere or left out.
# B1: SGC, Q9M345 (protein)
# chain: QNLNFTYNGFHPPLTDISLQGLATVTPNGLLKLTNTSVQKTGHAFCTERIRFKDSQNGNVSSFSTTFVFAIHSQIPTLSGHGIAFVVAPTLGLPFALPSQYIGLFNISNNGNDTNHIFAVEFDTIQSSEFGDPNDNHVGIDLNGLRSANYSTAGYRDDHDKFQNLSLISRKRIQVWIDYDNRSHRIDVTVAPFDSDKPRKPLVSYVRDLSSILLEDMYVGFSSATGSVLSEHFLVGWSFRLNGEAPMLSLSKLPKLPRFEPRRIS
# Key:
# Experiment in all cases: glycan array binding signal (z-score within array); higher = stronger binding
# Settings in all cases: glycan notation: IUPAC condensed, linker removed
# Neu5Ac(a2-3)Gal = biological target: Neu5Ac(a2-3)Gal
# Summary of the method: (§1)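 Glycan array binding is given as a within-array Z-score, which can be read as non-binding when negative. The arrays, 3228 of them, came from the Consortium for Functional Glycomics database and were retained only where the protein sequence was available. Z-scores were averaged across arrays of the same protein sequence at different concentrations or buffers and across linkers.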
# [1] = biological target: Neu5Ac(a2-3)Gal(b1-3)GalNAc
# Summary of the method: as §1
# [2] = biological target: Neu5Ac(a2-3)Gal(b1-3)GalNAc(b1-3)Gal(a1-4)Gal(b1-4)Glc
# Summary of the method: as §1
# [3] = biological target: Neu5Ac(a2-3)Gal(b1-3)GalNAc(b1-4)Gal(b1-4)Glc
# Summary of the method: as §1
# [4] = biological target: Neu5Ac(a2-3)Gal(b1-3)GalNAc(b1-4)[Neu5Ac(a2-3)]Gal(b1-4)Glc
# Summary of the method: as §1
# [5] = biological target: Neu5Ac(a2-3)Gal(b1-3)GalNAc(b1-4)[Neu5Ac(a2-8)Neu5Ac(a2-3)]Gal(b1-4)Glc
# Summary of the method: as §1
# [6] = biological target: Neu5Ac(a2-3)Gal(b1-3)GalNAc6S
# Summary of the method: as §1
# [7] = biological target: Neu5Ac(a2-3)Gal(b1-3)GlcNAc
# Summary of the method: as §1
# [8] = biological target: Neu5Ac(a2-3)Gal(b1-3)GlcNAc(b1-2)Man
# Summary of the method: as §1
# [9] = biological target: Neu5Ac(a2-3)Gal(b1-3)GlcNAc(b1-2)Man(a1-3)[GlcNAc(b1-4)][Neu5Ac(a2-3)Gal(b1-3)GlcNAc(b1-2)Man(a1-6)]Man(b1-4)GlcNAc(b1-4)GlcNAc
# Summary of the method: as §1
# [10] = biological target: Neu5Ac(a2-3)Gal(b1-3)GlcNAc(b1-2)Man(a1-3)[Neu5Ac(a2-3)Gal(b1-3)GlcNAc(b1-2)Man(a1-6)]Man(b1-4)GlcNAc(b1-4)GlcNAc
# Summary of the method: as §1
# [11] = biological target: Neu5Ac(a2-3)Gal(b1-3)GlcNAc(b1-2)[Neu5Ac(a2-3)Gal(b1-3)GlcNAc(b1-4)]Man(a1-6)[Neu5Ac(a2-3)Gal(b1-3)GlcNAc(b1-2)Man(a1-3)]Man(b1-4)GlcNAc(b1-4)GlcNAc
# Summary of the method: as §1
# [12] = biological target: Neu5Ac(a2-3)Gal(b1-3)GlcNAc(b1-3)Gal(b1-3)GlcNAc
# Summary of the method: as §1
# [13] = biological target: Neu5Ac(a2-3)Gal(b1-3)GlcNAc(b1-3)Gal(b1-4)GlcNAc
# Summary of the method: as §1
# [14] = biological target: Neu5Ac(a2-3)Gal(b1-3)GlcNAc(b1-3)GalNAc
# Summary of the method: as §1
# [15] = biological target: Neu5Ac(a2-3)Gal(b1-3)GlcNAc(b1-6)GalNAc
# Summary of the method: as §1
# [16] = biological target: Neu5Ac(a2-3)Gal(b1-3)GlcNAc6S
# Summary of the method: as §1
# [17] = biological target: Neu5Ac(a2-3)Gal(b1-3)[Fuc(a1-4)]GlcNAc
# Summary of the method: as §1
# [18] = biological target: Neu5Ac(a2-3)Gal(b1-3)[Fuc(a1-4)]GlcNAc(b1-3)Gal(b1-3)[Fuc(a1-4)]GlcNAc
# Summary of the method: as §1
# [19] = biological target: Neu5Ac(a2-3)Gal(b1-3)[Fuc(a1-4)]GlcNAc(b1-3)Gal(b1-4)[Fuc(a1-3)]GlcNAc
# Summary of the method: as §1
# [20] = biological target: Neu5Ac(a2-3)Gal(b1-3)[GlcNAc(b1-6)]GalNAc
# Summary of the method: as §1
# [21] = biological target: Neu5Ac(a2-3)Gal(b1-3)[Neu5Ac(a2-6)]GalNAc
# Summary of the method: as §1
# [22] = biological target: Neu5Ac(a2-3)Gal(b1-3)[Neu5Ac(a2-6)]GlcNAc(b1-3)[Fuc(a1-3)[Gal(b1-4)]GlcNAc(b1-6)]Gal(b1-4)Glc
# Summary of the method: as §1
# [23] = biological target: Neu5Ac(a2-3)Gal(b1-3)]Neu5Ac(a2-3)Gal(b1-4)]GlcNAc
# Summary of the method: as §1
# Neu5Ac(a2-3)Gal(b1-4)Glc = biological target: Neu5Ac(a2-3)Gal(b1-4)Glc
# Summary of the method: as §1
# [24] = biological target: Neu5Ac(a2-3)Gal(b1-4)GlcNAc
# Summary of the method: as §1
# [25] = biological target: Neu5Ac(a2-3)Gal(b1-4)GlcNAc(b1-2)Man
# Summary of the method: as §1
# [26] = biological target: Neu5Ac(a2-3)Gal(b1-4)GlcNAc(b1-2)Man(a1-3)[GlcNAc(b1-4)][Neu5Ac(a2-3)Gal(b1-4)GlcNAc(b1-2)Man(a1-6)]Man(b1-4)GlcNAc(b1-4)GlcNAc
# Summary of the method: as §1
# [27] = biological target: Neu5Ac(a2-3)Gal(b1-4)GlcNAc(b1-2)Man(a1-3)[Neu5Ac(a2-3)Gal(b1-4)GlcNAc(b1-2)Man(a1-6)]Man(b1-4)GlcNAc(b1-4)GlcNAc
# Summary of the method: as §1
# [28] = biological target: Neu5Ac(a2-3)Gal(b1-4)GlcNAc(b1-2)Man(a1-3)[Neu5Ac(a2-3)Gal(b1-4)GlcNAc(b1-2)Man(a1-6)]Man(b1-4)GlcNAc(b1-4)[Fuc(a1-6)]GlcNAc
# Summary of the method: as §1
# [29] = biological target: Neu5Ac(a2-3)Gal(b1-4)GlcNAc(b1-2)Man(a1-3)[Neu5Ac(a2-6)Gal(b1-4)GlcNAc(b1-2)Man(a1-6)]Man(b1-4)GlcNAc(b1-4)GlcNAc
# Summary of the method: as §1
# [30] = biological target: Neu5Ac(a2-3)Gal(b1-4)GlcNAc(b1-2)[Neu5Ac(a2-3)Gal(b1-4)GlcNAc(b1-4)]Man(a1-3)[GlcNAc(b1-4)][Neu5Ac(a2-3)Gal(b1-4)GlcNAc(b1-2)[Neu5Ac(a2-3)Gal(b1-4)GlcNAc(b1-6)]Man(a1-6)]Man(b1-4)GlcNAc(b1-4)GlcNAc
# Summary of the method: as §1
# [31] = biological target: Neu5Ac(a2-3)Gal(b1-4)GlcNAc(b1-2)[Neu5Ac(a2-3)Gal(b1-4)GlcNAc(b1-4)]Man(a1-3)[GlcNAc(b1-4)][Neu5Ac(a2-3)Gal(b1-4)GlcNAc(b1-4)Man(a1-6)]Man(b1-4)GlcNAc(b1-4)GlcNAc
# Summary of the method: as §1
# [32] = biological target: Neu5Ac(a2-3)Gal(b1-4)GlcNAc(b1-2)[Neu5Ac(a2-3)Gal(b1-4)GlcNAc(b1-6)]Man(a1-6)[Neu5Ac(a2-3)Gal(b1-4)GlcNAc(b1-2)Man(a1-3)][GlcNAc(b1-4)]Man(b1-4)GlcNAc(b1-4)GlcNAc
# Summary of the method: as §1
# [33] = biological target: Neu5Ac(a2-3)Gal(b1-4)GlcNAc(b1-3)Gal
# Summary of the method: as §1
# [34] = biological target: Neu5Ac(a2-3)Gal(b1-4)GlcNAc(b1-3)Gal(b1-3)GlcNAc
# Summary of the method: as §1
# [35] = biological target: Neu5Ac(a2-3)Gal(b1-4)GlcNAc(b1-3)Gal(b1-4)GlcNAc
# Summary of the method: as §1
# [36] = biological target: Neu5Ac(a2-3)Gal(b1-4)GlcNAc(b1-3)Gal(b1-4)GlcNAc(b1-2)Man(a1-3)[Neu5Ac(a2-3)Gal(b1-4)GlcNAc(b1-3)Gal(b1-4)GlcNAc(b1-2)Man(a1-6)]Man(b1-4)GlcNAc(b1-4)GlcNAc
# Summary of the method: as §1
# [37] = biological target: Neu5Ac(a2-3)Gal(b1-4)GlcNAc(b1-3)Gal(b1-4)GlcNAc(b1-3)Gal(b1-4)GlcNAc
# Summary of the method: as §1
# [38] = biological target: Neu5Ac(a2-3)Gal(b1-4)GlcNAc(b1-3)Gal(b1-4)GlcNAc(b1-3)Gal(b1-4)GlcNAc(b1-2)Man(a1-3)[Neu5Ac(a2-3)Gal(b1-4)GlcNAc(b1-3)Gal(b1-4)GlcNAc(b1-3)Gal(b1-4)GlcNAc(b1-2)Man(a1-6)]GalNAc
# Summary of the method: as §1
# [39] = biological target: Neu5Ac(a2-3)Gal(b1-4)GlcNAc(b1-3)Gal(b1-4)GlcNAc(b1-3)GalNAc
# Summary of the method: as §1
# [40] = biological target: Neu5Ac(a2-3)Gal(b1-4)GlcNAc(b1-3)Gal(b1-4)GlcNAc(b1-3)[Neu5Ac(a2-3)Gal(b1-4)GlcNAc(b1-3)Gal(b1-4)GlcNAc(b1-6)]GalNAc
# Summary of the method: as §1
# [41] = biological target: Neu5Ac(a2-3)Gal(b1-4)GlcNAc(b1-3)Gal(b1-4)GlcNAc(b1-6)[Gal(b1-3)]GalNAc
# Summary of the method: as §1
# [42] = biological target: Neu5Ac(a2-3)Gal(b1-4)GlcNAc(b1-3)Gal(b1-4)[Fuc(a1-3)]GlcNAc
# Summary of the method: as §1
# [43] = biological target: Neu5Ac(a2-3)Gal(b1-4)GlcNAc(b1-3)GalNAc
# Summary of the method: as §1
binder,measurement,setting,value
B1,glycan array binding signal (z-score),Neu5Ac(a2-3)Gal,-0.339
same,glycan array binding signal (z-score),[1],-0.36
same,glycan array binding signal (z-score),[2],-0.372
same,glycan array binding signal (z-score),[3],-0.393
same,glycan array binding signal (z-score),[4],-0.321
same,glycan array binding signal (z-score),[5],-0.342
same,glycan array binding signal (z-score),[6],-0.369
same,glycan array binding signal (z-score),[7],-0.349
same,glycan array binding signal (z-score),[8],-0.433
same,glycan array binding signal (z-score),[9],-0.362
same,glycan array binding signal (z-score),[10],0.081
same,glycan array binding signal (z-score),[11],-0.24
same,glycan array binding signal (z-score),[12],-0.482
same,glycan array binding signal (z-score),[13],-0.413
same,glycan array binding signal (z-score),[14],-0.335
same,glycan array binding signal (z-score),[15],-0.249
same,glycan array binding signal (z-score),[16],-0.283
same,glycan array binding signal (z-score),[17],-0.301
same,glycan array binding signal (z-score),[18],-0.332
same,glycan array binding signal (z-score),[19],-0.418
same,glycan array binding signal (z-score),[20],-0.332
same,glycan array binding signal (z-score),[21],-0.352
same,glycan array binding signal (z-score),[22],-0.198
same,glycan array binding signal (z-score),[23],-0.301
same,glycan array binding signal (z-score),Neu5Ac(a2-3)Gal(b1-4)Glc,0.069
same,glycan array binding signal (z-score),[24],-0.311
same,glycan array binding signal (z-score),[25],-0.386
same,glycan array binding signal (z-score),[26],-0.038
same,glycan array binding signal (z-score),[27],-0.297
same,glycan array binding signal (z-score),[28],-0.334
same,glycan array binding signal (z-score),[29],-0.356
same,glycan array binding signal (z-score),[30],-0.404
same,glycan array binding signal (z-score),[31],-0.366
same,glycan array binding signal (z-score),[32],-0.336
same,glycan array binding signal (z-score),[33],-0.387
same,glycan array binding signal (z-score),[34],-0.417
same,glycan array binding signal (z-score),[35],-0.344
same,glycan array binding signal (z-score),[36],0.489
same,glycan array binding signal (z-score),[37],-0.393
same,glycan array binding signal (z-score),[38],0.533
same,glycan array binding signal (z-score),[39],-0.318
same,glycan array binding signal (z-score),[40],-0.172
same,glycan array binding signal (z-score),[41],-0.349
same,glycan array binding signal (z-score),[42],-0.395
same,glycan array binding signal (z-score),[43],-0.36
